Drawing on the supplement of paper PMC9446081, this text covers relative growth for 39 compounds.

The whole screen tested about 39,000 compounds, of which about 220 (0.56%) showed activity. Some of the results follow.
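Also: static incubation at 37 °C against the wild-type strain, values averaged over two biological replicates.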

The subject of this assay is Escherichia coli K-12 BW25113. Nature of the assay: relative growth (OD600 normalised to plate interquartile mean) (fraction); higher = less growth inhibition, active = 0.2 or less. To be noted: 50 µM; LB; incubation time: overnight (16-24 h).
With `COCC(=O)Nc1ccc2c(c1)OC[C@@H](C)N(C(=O)Cc1ccccn1)C[C@@H](C)[C@@H](OC)CN(C)C2=O`, the relative growth is inactive: 1.03.

For `COc1ccc(S(=O)(=O)Nc2ccc3c(c2)C(=O)N([C@H](C)CO)C[C@@H](C)[C@H](CN(C)C(=O)CCC(F)(F)F)OCCCC[C@@H](C)O3)cc1`, the relative growth was inactive: 0.959.

Consider `COc1cccc(NC(=O)N2C[C@H](O)COC[C@H]3O[C@@H](CC(=O)NCc4ccccc4F)CC[C@@H]32)c1`, for which the relative growth is inactive: 1.

Regarding `Cc1nn(C)cc1NC(=O)C[C@H]1CC[C@H]2[C@H](COc3ccc(NC(=O)C4CCOCC4)cc3C(=O)N2C)O1`, the relative growth was inactive: 0.978.

Regarding `C[C@@H]1CCCCO[C@@H](CN(C)C(=O)C2CCCCC2)[C@H](C)CN([C@H](C)CO)C(=O)c2cc(NC(=O)Nc3ccc(C(F)(F)F)cc3)ccc2O1`, the relative growth is inactive: 1.01.

For the compound `CCC(=O)NO`, the relative growth was inactive: 1.02.

Take `C[C@@H]1CN([C@@H](C)CO)C(=O)c2cc(NC(=O)Nc3ccc(F)cc3)ccc2O[C@H]1CN(C)Cc1ccc(Cl)c(Cl)c1`: the relative growth is inactive: 0.99.

On to `Cc1noc(C)c1S(=O)(=O)N(C)C[C@H]1OCCCC[C@@H](C)Oc2ccc(NC(=O)Nc3ccccc3)cc2C(=O)N([C@@H](C)CO)C[C@H]1C`, for which the relative growth is inactive: 1.02.

As for `C[C@H]1CN([C@@H](C)CO)S(=O)(=O)c2ccc(C#CCN(C)C)cc2O[C@H]1CN(C)S(=O)(=O)c1cccc(F)c1`, the relative growth is inactive: 1.03.

Regarding `Cc1ccc(S(=O)(=O)N(C)C[C@@H]2Oc3ccc(NC(=O)CCN4CCOCC4)cc3CC(=O)N([C@@H](C)CO)C[C@@H]2C)cc1`, the relative growth is inactive: 1.01.

For `CCN(CC)c1ccc(N2CC=C[C@@]34O[C@@H]5C=CCOC(=O)[C@@H]5[C@H]3C(=O)N(CCCCCO)[C@@H]4C2=O)cc1`, the relative growth is inactive: 0.97.

For `C[C@H](CO)N1C[C@H](C)[C@@H](CN(C)S(C)(=O)=O)OCc2cn(nn2)CCCC1=O`, the relative growth is inactive: 1.03.

With `C[C@@H]1CCCCO[C@@H](CN(C)S(C)(=O)=O)[C@@H](C)CN([C@@H](C)CO)C(=O)c2cc(NS(C)(=O)=O)ccc2O1`, the relative growth was inactive: 0.994.

For `CCOc1ccccc1C(N)=O`, the relative growth was inactive: 0.926.

Take `CC(=O)N1[C@H](CNC(=O)CN2CCOCC2)[C@H](c2ccccc2)[C@@H]1CO`: the relative growth is inactive: 0.963.

For the compound `C[C@@H](O)C#Cc1cnc2c(c1)C(=O)N([C@@H](C)CO)C[C@H](C)[C@H](CN(C)Cc1cncnc1)O2`, the relative growth was inactive: 0.984.

Regarding `C[C@H]1CN([C@@H](C)CO)C(=O)c2cc(NS(=O)(=O)c3ccccc3)ccc2O[C@@H]1CN(C)Cc1ccncc1`, the relative growth is inactive: 1.01.

Regarding `Cc1noc(C)c1S(=O)(=O)Nc1ccc2c(c1)C(=O)N([C@H](C)CO)C[C@H](C)[C@H](CN(C)S(C)(=O)=O)O2`, the relative growth was inactive: 0.994.

As to `COc1ccc(NC(=O)Nc2ccc3c(c2)C(=O)N([C@@H](C)CO)C[C@H](C)[C@@H](CN(C)S(=O)(=O)c2ccc(Cl)cc2)OCCCC[C@@H](C)O3)cc1`, the relative growth is inactive: 1.02.

Turning to `Cc1noc(C)c1NC(=O)N(C)C[C@@H]1Oc2ncc(C#CCN(C)C)cc2C(=O)N([C@@H](C)CO)C[C@@H]1C`, the relative growth is inactive: 0.987.

On to `C[C@@H]1CN([C@H](C)CO)C(=O)c2cc(NS(=O)(=O)c3cccs3)ccc2O[C@H]1CN(C)S(=O)(=O)c1ccc(F)cc1`, for which the relative growth is inactive: 0.961.

Take `C[C@@H]1CCCCO[C@H](CN(C)C(=O)Nc2ccc(C(F)(F)F)cc2)[C@@H](C)CN([C@H](C)CO)C(=O)c2cc(NS(=O)(=O)c3cn(C)cn3)ccc2O1`: the relative growth was inactive: 0.977.

As to `COCC(=O)N1C[C@@H](C)[C@@H](OC)CN(C)C(=O)c2cc(NC(=O)c3ccc(OC)cc3)ccc2OC[C@@H]1C`, the relative growth is inactive: 1.02.

With `COc1ccc(C#Cc2ccc3c(c2)O[C@H](CN(C)C(C)=O)[C@H](C)CN([C@H](C)CO)S3(=O)=O)cc1`, the relative growth was inactive: 1.04.

As to `CC(C)NC(=O)c1cccc2cccc(Sc3ccccc3)c12`, the relative growth was inactive: 1.04.

For the compound `CCC(=O)Nc1ccc2c(c1)C(=O)N(C)C[C@H](OC)[C@@H](C)CN(C(=O)CN1CCOCC1)[C@@H](C)CO2`, the relative growth is inactive: 1.

As for `CN(C)c1ccc2nc3ccc(N(C)C)cc3[s+]c2c1.O.[Cl-]`, the relative growth was inactive: 0.934.

Take `CCS(=O)(=O)N1CC[C@]2(CC1)CN([C@H](CO)c1[nH]c3cc(ccc3c12)OC)C(=O)Cc1ccccn1`: the relative growth was inactive: 0.993.

For the compound `C[C@H]1CN([C@@H](C)CO)C(=O)c2cccc(NC(=O)NC3CCCCC3)c2O[C@H]1CN(C)C(=O)Nc1ccc(C(F)(F)F)cc1`, the relative growth was inactive: 0.828.

As for `C[C@H]1CN([C@@H](C)CO)C(=O)c2cc(C#CCN(C)C)cnc2O[C@@H]1CN(C)Cc1cccc(C(=O)O)c1`, the relative growth was inactive: 1.01.

In the case of `C[C@H](CO)N1C[C@H](C)[C@@H](CN(C)CC2CC2)OCCCC[C@H](C)Oc2ccc(NC(=O)Nc3ccc4c(c3)OCO4)cc2C1=O`, the relative growth was inactive: 0.99.

With `O=C(C[C@@H]1CC[C@@H](NC(=O)CN2CCOCC2)[C@H](CO)O1)NCCc1ccncc1`, the relative growth was inactive: 1.

Turning to `C[C@H]1CN([C@@H](C)CO)C(=O)c2cc(-c3cccc(C(=O)N(C)C)c3)cnc2O[C@H]1CN(C)S(=O)(=O)c1cccc(F)c1`, the relative growth was inactive: 1.01.

On to `Cc1noc(C)c1NC(=O)N[C@H]1CC[C@@H](CC(=O)NCCCN(C)C)O[C@@H]1CO`, for which the relative growth is inactive: 1.05.

On to `CCc1nc2ccc(C(=O)Nc3cc(-c4ccccc4)ccc3OC)cn2c1N(C)CCCc1ccccc1`, for which the relative growth is inactive: 1.03.

As to `C[C@@H]1CN([C@H](C)CO)C(=O)c2cc(NS(=O)(=O)c3ccc(F)cc3)ccc2O[C@@H]1CN(C)C(=O)Nc1ccc(C(F)(F)F)cc1`, the relative growth is inactive: 0.964.

`CC(C)NC(=O)N(C)C[C@@H]1Oc2ccc(NC(=O)Nc3ccc4c(c3)OCO4)cc2C(=O)N([C@H](C)CO)C[C@H]1C`: the relative growth was inactive: 0.985.

As to `CO[C@H]1CN(C)C(=O)c2ccc(NS(C)(=O)=O)cc2OC[C@H](C)N(C(=O)c2ccc3c(c2)OCO3)C[C@@H]1C`, the relative growth is inactive: 1.

For the compound `Cc1noc(C)c1NC(=O)N(C)C[C@H]1Oc2c(NS(C)(=O)=O)cccc2C(=O)N([C@@H](C)CO)C[C@H]1C`, the relative growth is inactive: 1.03.
